Test results from a collection of fitness landscapes (doi:10.1126/science.1257360).
Some of the results follow.

B1: PhoQ; a variant is named by its letters at X, in order, P23837 (parent)
chain: MKKLLRLFFPLSLRVRFLLATAAVVLVLSLAYGMVALIGYSVSFDKTTFRLLRGESNLFYTLAKWENNKLHVELPENIDKQSPTMTLIYDENGQLLWAQRDVPWLMKMIQPDWLKSNGFHEIEADVNDTSLLLSGDHSIQQQLQEVREDDDDAEMTHSVAVNVYPATSRMPKLTIVVVDTIPVELKSSYMVWSWFIYVLSANLLLVIPLLWVAAWWSLRPIEALAKEVRELEEHNRELLNPATTRELTSLVRNLNRLLKSERERYDKYRTTLTDLTHSLKTPLXXLQXXLRSLRSEKMSVSDAEPVMLEQISRISQQIGYYLHRASMRGGTLLSRELHPVAPLLDNLTSALNKVYQRKGVNISLDISPEISFVGEQNDFVEVMGNVLDNACKYCLEFVEISARQTDEHLYIVVEDDGPGIPLSKREVIFDRGQRVDTLRPGQGVGLAVAREITEQYEGKIVAGESMLGGARMEVIFGRQHSAPKDE

Variants of: B1
Assay: enrichment ratio after two sorts for PhoP signalling (ratio (wild type AVST 3.29)); higher = more functional
Details: with PhoP (E. coli)

Row | Variant | enrichment ratio
1 | FQGD | ≤ 0.25
2 | MCMM | 11.9
3 | EHPQ | ≤ 0.25
4 | KPFK | ≤ 0.25
5 | KNAL | ≤ 0.25
6 | DEPW | ≤ 0.25
7 | IRSR | ≤ 0.25
8 | VNYL | ≤ 0.25
9 | YGYL | ≤ 0.25
10 | IEYL | ≤ 0.25
11 | DASN | ≤ 0.25
12 | MSSM | 11.9
13 | VFSA | ≤ 0.25
14 | NSNG | ≤ 0.25
15 | FQIC | ≤ 0.25
16 | PNFM | ≤ 0.25
17 | YDQY | ≤ 0.25
18 | RHAG | ≤ 0.25
19 | RMHL | ≤ 0.25
20 | EVLD | ≤ 0.25
21 | WTMG | ≤ 0.25
22 | PQDG | ≤ 0.25
23 | GVPS | ≤ 0.25
24 | DFDG | ≤ 0.25

Row | Variant | enrichment ratio
25 | NSSA | 0.603
26 | IPGC | ≤ 0.25
27 | HDPM | ≤ 0.25
28 | VNWF | ≤ 0.25
29 | ELWC | ≤ 0.25
30 | HPRH | ≤ 0.25
31 | KVKF | ≤ 0.25
32 | RMNC | ≤ 0.25
33 | TWFF | ≤ 0.25
34 | LPHS | ≤ 0.25
35 | AMIE | ≤ 0.25
36 | LRWT | ≤ 0.25
37 | DPRP | ≤ 0.25
38 | MPLN | ≤ 0.25
39 | RAAV | ≤ 0.25
40 | RTEI | ≤ 0.25
41 | RQHP | ≤ 0.25
42 | NEPY | ≤ 0.25
43 | MCMN | ≤ 0.25
44 | YGVR | ≤ 0.25
45 | ENPN | ≤ 0.25
46 | TLWP | ≤ 0.25
47 | IFNR | ≤ 0.25
48 | AFMF | ≤ 0.25

Row | Variant | enrichment ratio
49 | HYIW | ≤ 0.25
50 | GHML | ≤ 0.25
51 | YYYA | ≤ 0.25
52 | VGFM | 4.1
53 | WGFT | ≤ 0.25
54 | HAMR | ≤ 0.25
55 | WWTG | ≤ 0.25
56 | KSGH | ≤ 0.25
57 | TNPP | ≤ 0.25
58 | PCCT | ≤ 0.25
59 | QSPY | ≤ 0.25
60 | RHSV | ≤ 0.25
61 | NWDC | ≤ 0.25
62 | VHAG | ≤ 0.25
63 | NEII | ≤ 0.25
64 | WYVR | ≤ 0.25
65 | DKHT | ≤ 0.25
66 | DKGN | ≤ 0.25
67 | NDPL | ≤ 0.25
68 | GKCH | ≤ 0.25
69 | SDDM | ≤ 0.25
70 | PCVK | ≤ 0.25
71 | YVMF | ≤ 0.25
72 | WGMI | ≤ 0.25

Row | Variant | enrichment ratio
73 | HFAT | ≤ 0.25
74 | MREV | ≤ 0.25
75 | HAFM | ≤ 0.25
76 | ILNW | ≤ 0.25
77 | SRYS | ≤ 0.25
78 | HQHL | ≤ 0.25
79 | IECE | ≤ 0.25
80 | KARF | ≤ 0.25
81 | IGDC | ≤ 0.25
82 | FSWM | ≤ 0.25
83 | HPSE | ≤ 0.25
84 | DSWL | ≤ 0.25
85 | TVSI | 17.4
86 | NTSD | ≤ 0.25
87 | WAVD | ≤ 0.25
88 | ALAG | 1.23
89 | ELAM | ≤ 0.25
90 | DLAS | ≤ 0.25
91 | NSDC | ≤ 0.25
92 | HQYS | ≤ 0.25
93 | VMCH | ≤ 0.25
94 | SIHT | ≤ 0.25
95 | MVQF | ≤ 0.25
96 | QFDW | ≤ 0.25

Row | Variant | enrichment ratio
97 | PMKC | ≤ 0.25
98 | DHMQ | ≤ 0.25
99 | YQAV | ≤ 0.25
100 | PTTR | ≤ 0.25
101 | TQAQ | 3.78
102 | GKVM | ≤ 0.25
103 | YWFV | ≤ 0.25
104 | PNNT | ≤ 0.25
105 | HGWW | ≤ 0.25
106 | EQLN | ≤ 0.25
107 | NGFK | ≤ 0.25
108 | YPIW | ≤ 0.25
109 | HCWL | ≤ 0.25
110 | AAWI | ≤ 0.25
111 | WCPQ | ≤ 0.25
112 | NGGM | ≤ 0.25
113 | QAMF | ≤ 0.25
114 | KIPP | ≤ 0.25
115 | IGLC | 0.963
116 | LNHT | ≤ 0.25
117 | SIVF | ≤ 0.25
118 | QAHC | ≤ 0.25
119 | RGPG | ≤ 0.25
120 | VPCT | ≤ 0.25

Row | Variant | enrichment ratio
121 | NCWK | ≤ 0.25
122 | GPTG | ≤ 0.25
123 | IPRS | ≤ 0.25
124 | RGQG | ≤ 0.25
125 | HHAF | ≤ 0.25
126 | LEVN | ≤ 0.25
127 | WECR | ≤ 0.25
128 | LFYN | ≤ 0.25
129 | KYYH | ≤ 0.25
130 | KPQF | ≤ 0.25
131 | DTCE | ≤ 0.25
132 | NENP | ≤ 0.25
133 | KMKS | ≤ 0.25
134 | KSIM | ≤ 0.25
135 | DIND | ≤ 0.25
136 | RFAM | ≤ 0.25
137 | NYHI | ≤ 0.25
138 | AWPM | ≤ 0.25
139 | VAEQ | ≤ 0.25
140 | NCKS | ≤ 0.25
141 | PSNA | ≤ 0.25
142 | KPSK | ≤ 0.25
143 | AGDR | ≤ 0.25
144 | IPHQ | ≤ 0.25

Row | Variant | enrichment ratio
145 | LHAI | ≤ 0.25
146 | ARAC | ≤ 0.25
147 | PNCV | ≤ 0.25
148 | FCMS | ≤ 0.25
149 | WLHW | ≤ 0.25
150 | CQNY | 12.1
151 | IWWM | ≤ 0.25
152 | GYYW | ≤ 0.25
153 | HRWH | ≤ 0.25
154 | CCSC | ≤ 0.25
155 | ISYM | ≤ 0.25
156 | HQYY | ≤ 0.25
157 | YCIQ | 0.253
158 | IVFK | ≤ 0.25
159 | YGFW | ≤ 0.25
160 | IDTV | ≤ 0.25
161 | QTHT | ≤ 0.25
162 | NTTC | ≤ 0.25
163 | QLRA | ≤ 0.25
164 | EDNF | ≤ 0.25
165 | GEEL | ≤ 0.25
166 | NWWR | ≤ 0.25
167 | NVWQ | ≤ 0.25
168 | HKKG | ≤ 0.25

Row | Variant | enrichment ratio
169 | YFIL | ≤ 0.25
170 | TYCV | 0.664
171 | WQEI | ≤ 0.25
172 | HRHS | ≤ 0.25
173 | TEIR | ≤ 0.25
174 | PPFN | ≤ 0.25
175 | AWNQ | ≤ 0.25
176 | FEKP | ≤ 0.25
177 | IKKD | ≤ 0.25
178 | GQRA | ≤ 0.25
179 | DRTW | ≤ 0.25
180 | QYNG | ≤ 0.25
181 | HDRF | ≤ 0.25
182 | EQVT | ≤ 0.25
183 | VVCS | ≤ 0.25
184 | HRPE | ≤ 0.25
185 | KFGG | ≤ 0.25
186 | RYYV | ≤ 0.25
187 | RGDA | ≤ 0.25
188 | SLSL | 10.7
189 | ILAC | ≤ 0.25
190 | FLVA | ≤ 0.25
191 | YGMM | ≤ 0.25
192 | SLWK | ≤ 0.25

Row | Variant | enrichment ratio
193 | PYCM | ≤ 0.25
194 | RWPH | ≤ 0.25
195 | GGRT | ≤ 0.25
196 | PGTD | ≤ 0.25
197 | AESS | 16.3
198 | NGRK | ≤ 0.25
199 | QPML | ≤ 0.25
200 | NRSE | ≤ 0.25
201 | PLEC | ≤ 0.25
202 | ARWN | ≤ 0.25
203 | IKQN | ≤ 0.25
204 | RPFR | ≤ 0.25
205 | QMIK | ≤ 0.25
206 | NVSE | ≤ 0.25
207 | TMKY | ≤ 0.25
208 | MHDV | 0.467
209 | DHPN | ≤ 0.25
210 | HHFH | ≤ 0.25
211 | GKWY | ≤ 0.25
212 | ICYH | ≤ 0.25
213 | KPDW | ≤ 0.25
214 | GRRR | ≤ 0.25
215 | WLMY | ≤ 0.25
216 | RKGS | ≤ 0.25

Row | Variant | enrichment ratio
217 | DVGY | ≤ 0.25
218 | PNRV | ≤ 0.25
219 | IKDV | ≤ 0.25
220 | IGLY | ≤ 0.25
221 | DIYE | ≤ 0.25
222 | IMRM | ≤ 0.25
223 | VTNL | ≤ 0.25
224 | NPCA | ≤ 0.25
225 | WLMG | ≤ 0.25
226 | ASLQ | 11.8
227 | HKKV | 2.09
228 | TWEF | ≤ 0.25
229 | RRYN | ≤ 0.25
230 | YYMS | ≤ 0.25
231 | TTSL | 17.6
232 | HDNG | ≤ 0.25
233 | MCHV | ≤ 0.25
234 | KNVT | ≤ 0.25
235 | VVSF | ≤ 0.25
236 | ERHV | ≤ 0.25
237 | RQNK | ≤ 0.25
238 | MDGQ | ≤ 0.25
239 | VAGA | ≤ 0.25
240 | WQVV | ≤ 0.25

Row | Variant | enrichment ratio
241 | QTSQ | 1.39
242 | AHGS | ≤ 0.25
243 | ILTF | 0.323
244 | MAWW | ≤ 0.25
245 | MTPL | 0.429
246 | EKWD | ≤ 0.25
247 | LRDY | ≤ 0.25
248 | KKII | ≤ 0.25
249 | LPRG | ≤ 0.25
250 | MRFW | ≤ 0.25
251 | VTVH | ≤ 0.25
252 | DVAR | ≤ 0.25
253 | IDKN | ≤ 0.25
254 | FMHA | ≤ 0.25
255 | YRDK | ≤ 0.25
256 | GNKI | ≤ 0.25
257 | GMWS | ≤ 0.25
258 | RIKC | ≤ 0.25
259 | ISER | ≤ 0.25
260 | DLYS | ≤ 0.25
261 | KKCC | ≤ 0.25
262 | TFNG | 1.19
263 | SEST | 18.4
264 | RQMN | ≤ 0.25

Row | Variant | enrichment ratio
265 | YWHV | ≤ 0.25
266 | EHCM | ≤ 0.25
267 | YKLQ | ≤ 0.25
268 | QRAS | ≤ 0.25
269 | AERV | ≤ 0.25
270 | DVPE | ≤ 0.25
271 | RWDW | ≤ 0.25
272 | EWPF | ≤ 0.25
273 | PRPE | ≤ 0.25
274 | NKLT | ≤ 0.25
275 | AIGW | 11.4
276 | VQYY | ≤ 0.25
277 | DMGL | ≤ 0.25
278 | NLTY | ≤ 0.25
279 | EPYN | ≤ 0.25
280 | MMNK | ≤ 0.25
281 | WDAC | ≤ 0.25
282 | AICC | 5.26
283 | LGVP | ≤ 0.25
284 | YSFY | ≤ 0.25
285 | QHVA | ≤ 0.25
286 | DKRQ | ≤ 0.25
287 | PCRI | ≤ 0.25
288 | SGSP | ≤ 0.25

Row | Variant | enrichment ratio
289 | TVNA | 2.27
290 | DLHY | ≤ 0.25
291 | QAKS | ≤ 0.25
292 | EVHY | ≤ 0.25
293 | QRHF | ≤ 0.25
294 | LGCD | ≤ 0.25
295 | MDAF | ≤ 0.25
296 | YGTY | ≤ 0.25
297 | DSQG | ≤ 0.25
298 | PAGY | ≤ 0.25
299 | TAGF | 13.2
300 | PVPS | ≤ 0.25
301 | TWMT | ≤ 0.25
302 | RLVQ | ≤ 0.25
303 | GAKG | ≤ 0.25
304 | YMPP | ≤ 0.25
305 | AHCW | ≤ 0.25
306 | PMSA | ≤ 0.25
